{"source": "PubChem BioAssay (NCATS)", "note": "Where “and” joins values, the source holds several entries; their conditions need not be identical. Equal entries are not always repeated. This list was built around the results that the source calls inconclusive (neither active nor inactive); the mix of calls is not that of the screen. Potencies beside an inconclusive call are fits to weak or partial responses and may not hold up. More than one record can exist for a structure, and the calls need not agree. Calls of active or inactive are those of the source. Calls come from the whole dose curve; as a rule, active = well fitted inhibition curve with a large enough effect; inconclusive = small, poorly fitted or top-dose-only effect; inactive = flat fitted curve, though single readings scatter. % is set by controls: 0 for no effect and ±100 for the full control effect; potency is the fitted concentration of half-maximal effect; tags give direction and shape of the fitted curve."}
{"tested_on": "HaCat", "test": "Cytotoxic Profiling of Annotated Libraries Using Quantitative High-Throughput Screening (AID 1296008); note: nearly all actives have a fitted effect of over 60% in size", "conditions": "Five cell lines viability, CellTiter-Glo ATP luminescence, 48-72 h; max response: stronger effect = lower value", "outline": "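Compounds were pin-transferred onto cells and incubated 48 or 72 hr at 37 degree Celsius, 95% humidity. CellTiter-Glo was added, plates sat 10 min at room temperature, then ATP-coupled luminescence was imaged as the viability read-out.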"}
{"smiles": "CNc1nccc(-c2cccnc2Oc2cc(C(=O)Nc3cccc(C(F)(F)F)c3)ccc2C)n1", "Potency": "inconclusive: 23.1 µM [inhibitor, single point]"}
{"smiles": "COc1cc2nccc(Oc3ccc(NC(=O)Nc4cc(C)on4)c(Cl)c3)c2cc1OC", "Potency": "inconclusive: 37.2 µM [inhibitor, single point] and inconclusive: 32.6 µM [inhibitor, single point]"}
{"smiles": "CC(=O)O[C@H]1C(=O)[C@@]2(C)C([C@H](OC(=O)c3ccccc3)[C@]3(O)C[C@H](OC(=O)[C@H](O)[C@@H](NC(=O)c4ccccc4)c4ccccc4)C(C)=C1C3(C)C)[C@]1(OC(C)=O)CO[C@@H]1C[C@@H]2O", "note": "(stereo not given in full)", "Potency": "inconclusive: 2.6 nM [inhibitor, full curve, poor fit] and inconclusive: 25.5 nM [inhibitor, full curve]"}
{"smiles": "Cn1cc(-c2ccc3ncc(Cc4ccc5ncccc5c4)n3n2)cn1", "Potency": "active: 20.6 µM"}
{"smiles": "CCC(=O)N1CCN(c2ccc(-n3c(=O)ccc4cnc5ccc(-c6cnc7ccccc7c6)cc5c43)cc2C(F)(F)F)CC1", "Potency": "active: 1.05 µM and active: 668 nM"}
{"smiles": "CN[C@H]1[C@@H](O[C@@H]2[C@H](O[C@@H]3[C@@H](O)[C@@H](O)[C@@H](N=C(N)N)[C@@H](O)[C@@H]3N=C(N)N)O[C@H](C)[C@@]2(O)C=O)O[C@@H](CO)[C@@H](O)[C@H]1O", "Potency": "inconclusive: 9.45 µM [inhibitor, partial curve, poor fit]"}
{"smiles": "CC(=O)c1c(C)c2cnc(Nc3ccc(N4CCNCC4)cn3)nc2n(C2CCCC2)c1=O", "Potency": "inconclusive: 9.35 µM [inhibitor, full curve]"}
{"smiles": "COc1cc(-c2nn(C3CCC(N4CCN(C(C)=O)CC4)CC3)c3ncnc(N)c23)ccc1NC(=O)c1cc2ccccc2n1C", "note": "(stereo not given)", "Potency": "active: 3.66 µM"}
{"smiles": "CC1(COc2ccc3c(c2)ncn3-c2ccc3cccc(N4CCC(N)CC4)c3n2)COC1", "Potency": "inconclusive: 37.2 µM [inhibitor, single point] and active: 20.6 µM"}
{"smiles": "O=C(O)c1ccc2c(c1)nc(Nc1cccc(Cl)c1)c1ccncc12", "Potency": "inconclusive: 23.1 µM [inhibitor, single point]"}
{"smiles": "COc1cc(Nc2ncc3c(n2)-c2ccc(Cl)cc2C(c2c(F)cccc2OC)=NC3)ccc1C(=O)O", "Potency": "inconclusive: 0.0731 µM [inhibitor, full curve, poor fit]"}
{"smiles": "O=C(NOC[C@H](O)CO)c1ccc(F)c(F)c1Nc1ccc(I)cc1F", "Potency": "active: 8.33 µM and active: 23.1 nM"}
{"smiles": "c1nc2nc(Nc3ccc(N4CCOCC4)cc3)nc(NC3CCCCC3)c2[nH]1", "Potency": "active: 2.64 µM and active: 2 µM"}
{"smiles": "COc1cc2c(N3CCN(C(=O)Nc4ccc(OC(C)C)cc4)CC3)ncnc2cc1OCCCN1CCCCC1", "max response": "inconclusive: -42.7% [inhibitor]"}
{"smiles": "Cn1cc(-c2[nH]c3cc(NC(=O)[C@H](N)C4CCCCC4)cc4c3c2C=NNC4=O)cn1", "Potency": "inconclusive: 13 µM [inhibitor, partial curve]"}
{"smiles": "C=CC(=O)Nc1cc(NC(=O)c2ccc(C)c(NC(=O)c3ccno3)c2)cc(C(F)(F)F)c1", "outcome": "inactive"}
{"smiles": "Cc1cnc(Nc2ccc(N3CCN(C)CC3)cc2)nc1Nc1cccc(S(=O)(=O)NC(C)(C)C)c1", "Potency": "active: 0.296 µM"}
{"smiles": "Nc1nc(F)nc2c1ncn2[C@@H]1O[C@H](CO)[C@@H](O)[C@@H]1O", "Potency": "inconclusive: 2.66 µM [inhibitor, partial curve, poor fit]"}
{"smiles": "CC(C)c1ccccc1Cc1cc(C(=O)Nc2ccc(S(=O)(=O)c3ccccc3C(C)(C)C)cc2)c(O)c(O)c1O", "Potency": "inconclusive: 20.9 µM [inhibitor, partial curve, poor fit]"}
{"smiles": "O=[N+]([O-])c1cn2c(n1)OC[C@@H](OCc1ccc(OC(F)(F)F)cc1)C2", "Potency": "inconclusive: 11.8 µM [inhibitor, partial curve, poor fit]"}
{"smiles": "Clc1cccc(-n2nnnc2NCc2ccccc2Oc2ccccn2)c1Cl", "max response": "inactive: -3.03% and inactive: -4.47%"}
{"smiles": "CCc1nc(-c2cccc(C)c2)c(-c2ccnc(NC(=O)c3ccccc3)c2)s1", "max response": "inactive: -12.8% and inactive: -8.84%"}
{"smiles": "N#CC1(c2cccc(C(=O)Nc3cc(Oc4ccc5nc(NC(=O)C6CC6)sc5n4)ccc3F)c2Cl)CC1", "Potency": "active: 26.4 µM and active: 20.6 µM"}
{"smiles": "Nc1nc(=S)c2[nH]cnc2[nH]1", "Potency": "active: 1.5 µM and active: 4.69 µM"}
{"smiles": "CNC(=O)c1c(-c2ccc(F)cc2)oc2cc(N(CCO)S(C)(=O)=O)c(C3CC3)cc12", "Potency": "inconclusive: 37.2 µM [inhibitor, partial curve, poor fit] and inconclusive: 13 µM [inhibitor, partial curve]"}
